Measured values as given in article PMC9574860, “Chemical Toolkit for PARK7: Potent, Selective, and High-Throughput” (Journal of Medicinal Chemistry, 2022).
Out of some 7,900 compounds screened, about 400 (5.1%) showed an effect of 50% or more. The list shows a part of the results.

Molecular target: Parkinson's disease protein 7 (PARK7/DJ1) (human, UniProt Q99497)
Assay: primary screen, percent inhibition; read as competition with a fluorescent probe by fluorescence polarization; higher = more effect of the substance
Conditions: 100 µM
Experimental: The screen was conducted using the conditions as described above in 1536-well plates (Corning 3724) with a reaction volume of 8 μL per well. The compound library containing 7887 covalent fragments was purchased at Enamine Ltd. and received as 100 mM DMSO stocks in 384 well LDV Echo plates (Labcyte LP-0200). Stock solutions of 0.26 μM PARK7 and 80 nM JYQ-107 were prepared. Using a Labcyte Echo550 acoustic dispenser, 8 nL of the DMSO stock solution of the library compounds was transferred from the source plates into the empty 1536-well screening plates to obtain a 100 μM final compound concentration. Next, PARK7 (6 μL, final concentration 0.2 μM) was dispensed using a Biotek MultiflowFX liquid dispenser and incubated for 2 h, followed by dispensing the probe JYQ-107 (2 μL, final concentration 20 nM). After 2 h incubation, the FP signal was recorded on a BMG Labtech PHERAstar plate reader (λex/em 480/520 nm). The relative loss of FP signal compared with reference controls was used to calculate the remaining enzyme activity.

Sequence of Parkinson's disease protein 7 (PARK7/DJ1) (Q99497 whole entry, looked up): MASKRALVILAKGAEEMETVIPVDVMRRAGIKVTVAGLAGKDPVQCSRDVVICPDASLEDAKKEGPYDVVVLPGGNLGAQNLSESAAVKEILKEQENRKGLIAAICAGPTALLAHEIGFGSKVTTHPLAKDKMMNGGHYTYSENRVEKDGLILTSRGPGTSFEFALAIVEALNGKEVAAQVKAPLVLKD

Which Inhibition % does the source give for `CC(=CC#N)c1ccccc1` here?
The Inhibition % was 6.88%.

`Cn1c(=O)c2c(S)nc(C(C)(C)C)nc2n(C)c1=O` was tested. Which Inhibition % did it give?
Its Inhibition % is -0.398%.

For `C#CC(=O)Nc1ccc(O)c(C(=O)O)c1`, which Inhibition % is on record?
Its Inhibition % is 9.44%.

With `CCCNc1ccccc1NC(=O)c1c[nH]c(C#N)c1` as the molecule, how does the Inhibition % read?
Its Inhibition % is 2.91%.

Which Inhibition % does the source give for `C=CC(=O)N1CCCC1c1ncc(Br)cn1` (stereo not drawn) here?
Its Inhibition % is 10.2%.

Which Inhibition % does the source give for `O=S(=O)(c1ccc(S)nc1)N1CCOCC1` here?
The Inhibition % was 28.6%.

How did the Inhibition % turn out when `Cc1c(C#N)c(NC(=O)CCl)n(Cc2ccccc2)c1C` was run?
Its Inhibition % is 25.5%.

Which Inhibition % does the source give for `CC1(C)OB(c2ccc(Cn3ccnc3)cc2)OC1(C)C` here?
The Inhibition % was 0.184%.

`Oc1cc(C2CC2)nc(S)n1` was tested. Which Inhibition % did it give?
Its Inhibition % is 16.9%.

Which Inhibition % does the source give for `CC1(C)OB(c2cccc(CN3CCCS3(=O)=O)c2)OC1(C)C` here?
Its Inhibition % is 4.68%.

`O=C(CCl)NC(c1ccccc1)c1cccs1` (stereo not drawn) was tested. Which Inhibition % did it give?
The Inhibition % was 20.4%.

How did the Inhibition % turn out when `CCOc1ccc(S(=O)(=O)n2cccn2)c(C)c1C` was run?
Its Inhibition % is 2.55%.

`C=CC(=O)NC[C@H]1C[C@@H](OC)C1` was tested. Which Inhibition % did it give?
Its Inhibition % is 9.78%.

How did the Inhibition % turn out when `O=C(NC1CCOC2(CCSC2)C1)c1cccnc1S` (stereo not drawn) was run?
The Inhibition % was 3.43%.

Which Inhibition % does the source give for `Cc1nn(C)c(C)c1C=CC(=O)N1CCCCC1C` (stereo not drawn) here?
The Inhibition % was -1.08%.

`O=C(CCCl)N1CCN(c2ncccn2)CC1` was tested. Which Inhibition % did it give?
Its Inhibition % is 3.8%.

How did the Inhibition % turn out when `Cn1nc(-c2ccccc2)cc1B1OC(C)(C)C(C)(C)O1` was run?
Its Inhibition % is 16.2%.

How did the Inhibition % turn out when `NC(=O)Cn1c(-c2ccccc2)noc1=O` was run?
The Inhibition % was 6.77%.

How did the Inhibition % turn out when `C=CC(=O)NCc1nc(N(C)C)no1` was run?
The Inhibition % was 2.57%.

How did the Inhibition % turn out when `CC(C)N(C)S(=O)(=O)c1ccc(NC(=O)CCl)cc1` was run?
Its Inhibition % is 83.8%.

Which Inhibition % does the source give for `O=C(CCl)Nc1ccccc1I` here?
The Inhibition % was 12.2%.

With `NS(=O)(=O)c1ccc(NC(=O)CCl)cc1` as the molecule, how does the Inhibition % read?
Its Inhibition % is 69.2%.

`C=CC(=O)Nc1ccc(N2CCCCC2)cn1` was tested. Which Inhibition % did it give?
Its Inhibition % is 26.8%.

With `C=CC(=O)N(C)Cc1oc2c(C)cccc2c1C` as the molecule, how does the Inhibition % read?
Its Inhibition % is 4.58%.

`Cl.NCc1cccc(CN2C(=O)CSC2=O)c1` was tested. Which Inhibition % did it give?
The Inhibition % was 7.23%.

Which Inhibition % does the source give for `C=CC(=O)N1Cc2cnn(-c3ccccc3)c2C1` here?
The Inhibition % was 6.47%.

With `Cc1cc(C)c(S(=O)(=O)n2cccn2)cc1C` as the molecule, how does the Inhibition % read?
The Inhibition % was 2.55%.

How did the Inhibition % turn out when `Cl.NC1CCCN(S(=O)(=O)C=Cc2cccc(Cl)c2)C1` (stereo not drawn) was run?
The Inhibition % was 4.64%.

How did the Inhibition % turn out when `N#CC=CN1CCN(c2ccccn2)CC1` was run?
The Inhibition % was 7.23%.

How did the Inhibition % turn out when `CC(C)Cc1ncc(CNC(=O)c2cccnc2S)s1` was run?
Its Inhibition % is 10.6%.

With `Cl.O=C(Oc1ccccc1)N1CCNCC1` as the molecule, how does the Inhibition % read?
Its Inhibition % is 4.3%.

For `C[C@@H]1O[C@H]1c1cccc(Cl)c1` (racemic), which Inhibition % is on record?
Its Inhibition % is 3.87%.

Which Inhibition % does the source give for `O=C(CCl)Nc1ccccc1Cc1ccccc1` here?
Its Inhibition % is 7.34%.
